The whole screen tested about 310,000 compounds, of which about 2,200 (0.71%) showed an effect of 50% or more. Effects have a minus sign here. Some of the results follow.
The compounds below were run against human ether-à-go-go-related gene (hERG) potassium channel (human, UniProt Q12809) (assay: primary screen, population patch clamp on CHO cells stably expressing hERG).
human ether-à-go-go-related gene (hERG) potassium channel, sequence (Q12809 whole entry, looked up): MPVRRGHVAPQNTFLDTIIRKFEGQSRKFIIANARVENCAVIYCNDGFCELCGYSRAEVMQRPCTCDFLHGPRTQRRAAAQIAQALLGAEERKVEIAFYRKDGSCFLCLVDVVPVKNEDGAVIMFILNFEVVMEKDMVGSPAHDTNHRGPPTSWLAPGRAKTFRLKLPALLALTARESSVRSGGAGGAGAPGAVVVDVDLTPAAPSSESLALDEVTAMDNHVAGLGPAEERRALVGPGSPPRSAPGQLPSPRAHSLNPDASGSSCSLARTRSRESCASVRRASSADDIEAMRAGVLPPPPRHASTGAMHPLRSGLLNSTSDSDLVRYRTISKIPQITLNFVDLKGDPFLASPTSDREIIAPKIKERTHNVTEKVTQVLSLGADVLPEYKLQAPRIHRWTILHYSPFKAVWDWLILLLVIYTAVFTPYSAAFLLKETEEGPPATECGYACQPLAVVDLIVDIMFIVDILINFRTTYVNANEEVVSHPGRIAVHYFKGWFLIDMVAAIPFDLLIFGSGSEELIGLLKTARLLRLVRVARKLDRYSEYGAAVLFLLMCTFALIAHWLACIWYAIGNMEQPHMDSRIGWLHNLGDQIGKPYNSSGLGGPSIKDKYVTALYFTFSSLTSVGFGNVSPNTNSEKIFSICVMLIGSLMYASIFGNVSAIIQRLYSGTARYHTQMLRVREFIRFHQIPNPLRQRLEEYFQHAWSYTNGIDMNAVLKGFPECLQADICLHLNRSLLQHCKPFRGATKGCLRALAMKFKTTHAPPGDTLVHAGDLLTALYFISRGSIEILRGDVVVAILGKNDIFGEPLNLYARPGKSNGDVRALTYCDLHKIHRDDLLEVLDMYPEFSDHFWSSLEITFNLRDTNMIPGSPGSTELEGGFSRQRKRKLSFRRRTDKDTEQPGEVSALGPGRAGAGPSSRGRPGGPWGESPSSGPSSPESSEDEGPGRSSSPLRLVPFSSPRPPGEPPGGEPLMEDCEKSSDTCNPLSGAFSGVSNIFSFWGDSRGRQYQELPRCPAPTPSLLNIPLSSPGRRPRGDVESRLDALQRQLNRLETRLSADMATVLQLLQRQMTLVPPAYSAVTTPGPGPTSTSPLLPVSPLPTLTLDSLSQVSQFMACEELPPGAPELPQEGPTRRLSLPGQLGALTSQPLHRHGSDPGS

SMILES	hERG current change (%, negative = inhibition) at 1uM [%]
O=C(OCCn1cncn1)c1cc2ccccc2oc1=O	13.1
CCOC(=O)c1cc(S(=O)(=O)NCCc2ccccc2)cn1C	19.6
CC(=O)Nc1ccc(S(=O)(=O)Nc2nc3ccccc3nc2Sc2nncn2C)cc1	11.8
CC(=O)N1CCN(S(=O)(=O)c2cccc(C(=O)NNC(=O)COc3ccc(Cl)cc3C)c2)CC1	-10.6
CCn1c(SCC(=O)N2CCOCC2)nc2ccccc21	9.11
Cn1c(-c2sc(=S)n(-c3ccccc3)c2N)nc2ccccc21	-1.58
O=C(CN(c1ccccc1)S(=O)(=O)c1ccccc1)Nc1ccccc1C(=O)NCc1ccco1	9.58
CCCCc1nnc(NC(=O)C2CCCO2)s1 (stereo not shown)	10.7
COc1ccc(C(C)=O)cc1CSc1nnc(Nc2c(C)cccc2C)s1	-24.5
O=C(O)c1ccc(-c2noc(-c3cccc(C(F)(F)F)c3)n2)cc1	17.7
CC(C)c1ncc(C(O)c2ccccc2)n1C (stereo not shown)	10.3
COc1ccc(N2CCN(CCCNC(=O)C3(S(=O)(=O)c4ccc(Cl)cc4)CC3)CC2)cc1	-46.7
COc1ccc(CN2CCN(CC3CC3)CC2CCO)c(C)c1C (stereo not shown)	13.2
CC(C)OCCCNC(=S)N1CCC(C(=O)c2ccc3c(c2)OCCO3)CC1	1.43
Cc1ccc(C(=O)OCC(=O)NC2CCCCC2)o1	7.25
C#CCNC(=O)C1=C[C@H](c2coc3ccccc3c2=O)C[C@H](OCc2ccc(CO)cc2)O1	-20.9
N/C(Cn1cncn1)=N\NC(=O)C(=O)Nc1ccc(Cl)cc1Cl	11
C[C@@H]1C=C(C(=O)NCc2ccccc2)O[C@H](OCc2ccc(CO)cc2)C1	17.8
Nc1ccc(-c2cnc3ccccc3n2)cc1	18.3
O=C(CSCC(=O)N1CCOCC1)Nc1nc(-c2ccccc2)cs1	7.35
Cl.c1cncc(CNCc2ccco2)c1	12.4
O=C(Nc1nnc(COc2ccc(Cl)cc2)s1)c1cccs1	-10.9
CC(C)(C)c1cc(S(=O)(=O)CCc2ccncc2)cc(C(C)(C)C)c1F	14.1
CCCCNc1nnc(CCn2nc(C)c(Br)c2C)s1	0.787
CC[C@@H](CO)C1CC2NC3CC4(c5ccccc5N(C)[C@@H]24)C(O)C31 (stereo partly shown)	0.425
